# In the supplement of paper PMC10037445:
# Over roughly 2,900 compounds, “IRF Lucia reporter activity, fold change vs agonist alone” has its median near 0.9; the highest 2% begin near 2.8. Some of the results follow.
# Legend:
# [1] = tested on: RAW-Dual; experiment: IRF Lucia reporter activity, fold change vs agonist alone; higher = enhanced IRF activity; conditions: agonist: MPLA (TLR4) […]
# In short: (§1)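 Cytotoxic wells were those whose IncuCyte confluency was below 70% of agonist controls in both mask sets. The cells were RAW-Dual macrophages at 50,000 cells/well in DMEM on 384-well plates, dosed with 50 nL of library stock by pin tool, stimulated with a PRR agonist 1 h later, and kept at 37 °C, 5% CO2 for 20 hours. IRF and NF-κB reporter activity, as fold change over agonist-alone wells, came from supernatant read by QuantiLuc luminescence and QuantiBlue absorbance, respectively.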
# [2] = tested on: RAW-Dual; experiment: IRF Lucia reporter activity, fold change vs agonist alone; cytotoxicity flag (confluency mask): not cytotoxic; higher = enhanced IRF activity
# In short: as §1
# [3] = tested on: RAW-Dual; experiment: IRF Lucia reporter activity, fold change vs agonist alone; cytotoxicity flag (confluency mask): cytotoxic (confluency <70% of control); higher = enhanced IRF activity
# In short: as §1
# [4] = agonist: 3'3'-cGAMP (STING) 10 ug/mL
# [5] = library stock concentration (final ~1000-fold dilution): 10 mM, cytotoxicity flag (confluency mask): not cytotoxic
# [6] = library stock concentration (final ~1000-fold dilution): 10 mM, cytotoxicity flag (confluency mask): cytotoxic (confluency <70% of control)
structure (smiles),measurement,setting,value
CNC1C(O)C(OC2C(N)CC(N)C(OC3OC(C(C)O)C(O)C(O)C3N)C2O)OCC1(C)O.O=S(=O)(O)O.O=S(=O)(O)O (stereo unspecified),IRF Lucia reporter activity,"[1]; library stock concentration (final ~1000-fold dilution): 10 mM water, cytotoxicity flag (confluency mask): not cytotoxic",1.47
CNC1C(O)C(OC2C(N)CC(N)C(OC3OC(C(C)O)C(O)C(O)C3N)C2O)OCC1(C)O.O=S(=O)(O)O.O=S(=O)(O)O (stereo unspecified) (library stock concentration (final ~1000-fold dilution): 10 mM water),IRF Lucia reporter activity,[2]; [4],1.47
same,IRF Lucia reporter activity,[2]; agonist: LPS (TLR4) 0.1 ug/mL,0.916
CC1(C)C(=O)N(c2ccc(C#N)c(C(F)(F)F)c2)C(=O)N1CCCCO (library stock concentration (final ~1000-fold dilution): 10 mM),IRF Lucia reporter activity,[2]; [4],1.1
same,IRF Lucia reporter activity,[2]; agonist: LPS (TLR4) 0.1 ug/mL,1.39
CC1(C)C(=O)N(c2ccc(C#N)c(C(F)(F)F)c2)C(=O)N1CCCCO,IRF Lucia reporter activity,[1]; [5],1.03
O=C(OC1C[N+]2(CCCOc3ccccc3)CCC1CC2)C(O)(c1cccs1)c1cccs1 (stereo unspecified),IRF Lucia reporter activity,[1]; [5],1.17
O=C(OC1C[N+]2(CCCOc3ccccc3)CCC1CC2)C(O)(c1cccs1)c1cccs1 (stereo unspecified) (library stock concentration (final ~1000-fold dilution): 10 mM),IRF Lucia reporter activity,[2]; [4],1.07
same,IRF Lucia reporter activity,[2]; agonist: LPS (TLR4) 0.1 ug/mL,1.3
CC(C)(C)c1cc(C=C(C#N)C#N)cc(Br)c1O (library stock concentration (final ~1000-fold dilution): 10 mM),IRF Lucia reporter activity,[3]; [4],0.305
same,IRF Lucia reporter activity,[3]; agonist: LPS (TLR4) 0.1 ug/mL,0.69
CC(C)(C)c1cc(C=C(C#N)C#N)cc(Br)c1O,IRF Lucia reporter activity,[1]; [6],0.904
CC(C)[C@]12O[C@H]1[C@@H]1O[C@]13[C@]1(O[C@H]1C[C@H]1C4=C(CC[C@@]13C)C(=O)OC4)[C@@H]2O (library stock concentration (final ~1000-fold dilution): 10 mM),IRF Lucia reporter activity,[3]; [4],0.0202
same,IRF Lucia reporter activity,[3]; agonist: LPS (TLR4) 0.1 ug/mL,0.0168
COc1cc2c(c(OC)c1OC)-c1ccc(OC)c(=O)cc1C(NC(C)=O)CC2 (stereo unspecified),IRF Lucia reporter activity,[1]; [5],1.87
COc1cc2c(c(OC)c1OC)-c1ccc(OC)c(=O)cc1C(NC(C)=O)CC2 (stereo unspecified) (library stock concentration (final ~1000-fold dilution): 10 mM),IRF Lucia reporter activity,[2]; [4],0.104
same,IRF Lucia reporter activity,[2]; agonist: LPS (TLR4) 0.1 ug/mL,1.6
O=C(c1ccccc1O)c1[nH]c(Cl)c(Cl)c1-n1c(C(=O)c2ccccc2O)cc(Cl)c1Cl (library stock concentration (final ~1000-fold dilution): 10 mM),IRF Lucia reporter activity,[3]; [4],0.252
same,IRF Lucia reporter activity,[3]; agonist: LPS (TLR4) 0.1 ug/mL,2.48
O=C(c1ccccc1O)c1[nH]c(Cl)c(Cl)c1-n1c(C(=O)c2ccccc2O)cc(Cl)c1Cl,IRF Lucia reporter activity,[1]; [6],2
O=C(O)C(=O)c1cn(Cc2ccccc2)c2ccc(-c3ccc(OC(F)(F)F)cc3)cc12 (library stock concentration (final ~1000-fold dilution): 10 mM),IRF Lucia reporter activity,[2]; [4],0.879
same,IRF Lucia reporter activity,[2]; agonist: LPS (TLR4) 0.1 ug/mL,1.14
CC(C)=CCCC1(C)C=Cc2c(O)c3c(c(CC=C(C)C)c2O1)OC12C(=CC4CC1C(C)(C)OC2(C/C=C(/C)C(=O)O)C4=O)C3=O (stereo unspecified),IRF Lucia reporter activity,[1]; [5],1.15
CC(C)=CCCC1(C)C=Cc2c(O)c3c(c(CC=C(C)C)c2O1)OC12C(=CC4CC1C(C)(C)OC2(C/C=C(/C)C(=O)O)C4=O)C3=O (stereo unspecified) (library stock concentration (final ~1000-fold dilution): 10 mM),IRF Lucia reporter activity,[2]; [4],0.969
same,IRF Lucia reporter activity,[2]; agonist: LPS (TLR4) 0.1 ug/mL,0.0102
CC12CCC3C(CCC45OC4C(O)=C(C#N)CC35C)C1CCC2O (stereo unspecified) (library stock concentration (final ~1000-fold dilution): 10 mM),IRF Lucia reporter activity,[2]; [4],1.14
same,IRF Lucia reporter activity,[2]; agonist: LPS (TLR4) 0.1 ug/mL,0.987
CC12CCC3C(CCC45OC4C(O)=C(C#N)CC35C)C1CCC2O (stereo unspecified),IRF Lucia reporter activity,[1]; [5],1.04
O=c1c2ccccc2[se]n1-c1ccccc1 (library stock concentration (final ~1000-fold dilution): 10 mM),IRF Lucia reporter activity,[2]; [4],0.18
same,IRF Lucia reporter activity,[2]; agonist: LPS (TLR4) 0.1 ug/mL,0.28
c1ccc2c(c1)Nc1ccccc1S2 (library stock concentration (final ~1000-fold dilution): 10 mM),IRF Lucia reporter activity,[2]; [4],0.89
same,IRF Lucia reporter activity,[2]; agonist: LPS (TLR4) 0.1 ug/mL,1.04
c1ccc2c(c1)Nc1ccccc1S2,IRF Lucia reporter activity,[1]; [5],1.14
O=C(O)C(=O)CBr (library stock concentration (final ~1000-fold dilution): 10 mM),IRF Lucia reporter activity,[2]; [4],0.812
same,IRF Lucia reporter activity,[2]; agonist: LPS (TLR4) 0.1 ug/mL,0.867
O=C(O)C(=O)CBr,IRF Lucia reporter activity,[1]; [5],0.918
CCNC(=O)CC1N=C(c2ccc(Cl)cc2)c2cc(OC)ccc2-n2c(C)nnc21 (stereo unspecified),IRF Lucia reporter activity,[1]; [5],0.216
CCNC(=O)CC1N=C(c2ccc(Cl)cc2)c2cc(OC)ccc2-n2c(C)nnc21 (stereo unspecified) (library stock concentration (final ~1000-fold dilution): 10 mM),IRF Lucia reporter activity,[2]; [4],0.273
same,IRF Lucia reporter activity,[2]; agonist: LPS (TLR4) 0.1 ug/mL,0.225
CCNc1nc(Cl)nc(NC(C)C)n1 (library stock concentration (final ~1000-fold dilution): 10 mM),IRF Lucia reporter activity,[2]; [4],1.01
same,IRF Lucia reporter activity,[2]; agonist: LPS (TLR4) 0.1 ug/mL,1.25
CCNc1nc(Cl)nc(NC(C)C)n1,IRF Lucia reporter activity,[1]; [5],1.11
Cl[Te]1(Cl)(Cl)OCCO1.N (library stock concentration (final ~1000-fold dilution): 10 mM),IRF Lucia reporter activity,[2]; [4],0.82
same,IRF Lucia reporter activity,[2]; agonist: LPS (TLR4) 0.1 ug/mL,1.26
CN1C2CCC1CC(OC(=O)C(CO)c1ccccc1)C2.CN1C2CCC1CC(OC(=O)C(CO)c1ccccc1)C2.O=S(=O)(O)O (stereo unspecified) (library stock concentration (final ~1000-fold dilution): 10 mM),IRF Lucia reporter activity,[2]; [4],0.999
same,IRF Lucia reporter activity,[2]; agonist: LPS (TLR4) 0.1 ug/mL,1.4
